# According to PubChem BioAssay AID588342 (National Center for Advancing Translational Sciences (NCATS), 2011):
# Hit rate of the full screen: of about 360,000 compounds, about 25,000 (6.9%) were called active. Inconclusive means that the source gave no clear call. Such entries were picked first, then a sample of the others. The call rests on the fitted dose curve; in most records, active means well fitted inhibition curve with a large enough effect; inconclusive means small, poorly fitted or top-dose-only effect; inactive means flat fitted curve, though single readings scatter. Potencies beside an inconclusive call are fits to weak or partial responses and may not hold up.
# Target: Luciferin 4-monooxygenase (Photinus pyralis) (UniProt P08659)
# Experiment: qHTS profiling assay for firefly luciferase inhibitor/activator using purifed enzyme and Km concentrations of substrates (counterscreen for miR-21 project); further: nearly all actives have a fitted effect of over 55% in size;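 on activity change, negative = inhibition: plate controls were vehicle for no effect and reference inhibitor for full effect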
# Conditions: purified FLuc, luminescence inhibition; series mostly up to 57.5 µM; activity change, negative = inhibition: at the top concentration
# Summary of the method: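 Biochemical qHTS of compounds, final roughly 60 µM downward over six points, against 10 nM purified firefly luciferase using Km concentrations of substrates (10 uM D-luciferin, 10 uM ATP) in Tris acetate pH 7.5 buffer; luminescence output.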
# Potency means the concentration at half of the fitted maximal effect; tags describe the fitted curve by direction and shape.
# Sequence of UniProt P08659 (P08659 whole entry, looked up): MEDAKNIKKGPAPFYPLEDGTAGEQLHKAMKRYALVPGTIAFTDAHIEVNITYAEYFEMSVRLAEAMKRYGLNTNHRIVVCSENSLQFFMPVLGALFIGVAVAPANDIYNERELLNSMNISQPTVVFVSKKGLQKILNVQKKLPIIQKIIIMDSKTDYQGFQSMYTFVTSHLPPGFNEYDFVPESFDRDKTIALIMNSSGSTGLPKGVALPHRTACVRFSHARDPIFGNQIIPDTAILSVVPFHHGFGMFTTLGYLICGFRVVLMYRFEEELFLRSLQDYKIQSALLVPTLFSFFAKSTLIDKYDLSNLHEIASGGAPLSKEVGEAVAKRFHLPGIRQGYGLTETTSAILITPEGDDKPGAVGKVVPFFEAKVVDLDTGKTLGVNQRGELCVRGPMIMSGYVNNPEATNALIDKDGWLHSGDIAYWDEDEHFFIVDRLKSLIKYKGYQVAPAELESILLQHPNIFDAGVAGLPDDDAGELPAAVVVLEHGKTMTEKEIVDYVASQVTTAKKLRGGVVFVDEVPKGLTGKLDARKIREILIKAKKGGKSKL
Compound,Potency,"activity change, negative = inhibition"
CCC(=O)Nc1ccc2nc(SCCOc3ccc(C)cc3OC)sc2c1,"inconclusive: 26.9 µM [inhibitor, single point]",
COc1ccc(-c2sc3ccc(OC)cc3c2C#Cc2ccccn2)cc1,"inconclusive: 5.36 µM [inhibitor, partial curve, poor fit]",
CC(c1ccco1)N(C(=O)COc1ccc(Cl)cc1Cl)c1ccccn1 (stereo not drawn),active: 4.26 µM,
Cn1nc(-c2ccccc2)nc1-c1ccccc1,active: 21.3 µM,
COc1cccc2c(SCC(=O)N/N=C/c3ccc(O)cc3O)cc(C)nc12,"inconclusive: 26.9 µM [inhibitor, partial curve, poor fit]",
O=C(Nc1ccc2oc(=O)ccc2c1)c1ccc2ccccc2c1,active: 9.53 µM,
COc1ccc(CCN2CC(C#N)=C3c4cc(OC)c(OC)cc4CCN3C2)cc1OC,,inactive: -0.235%
O=C(/C=C/Nc1ccccc1)c1ccc(Cl)cc1Cl,active: 0.379 µM,
Cc1ccccc1NS(=O)(=O)c1nnc(NC(=O)CC(C)C)s1,,inactive: 3.38%
COc1cccc(NC(=O)CSc2nnnn2C2CCCCC2)c1,,inactive: -4.95%
CC1CCC(NC(=O)c2ccc(CS(=O)(=O)c3ccc(Cl)cc3)o2)CC1 (stereo not drawn),,inactive: 2%
O=C(/C=C/c1c(F)cccc1Cl)N1CCOCC1,"inconclusive: 26.9 µM [inhibitor, partial curve, poor fit]",
N#Cc1ccccc1OCC(=O)OCC(=O)c1c[nH]c2ccccc12,"inconclusive: 21.3 µM [inhibitor, single point]",
CCOC(=O)C(=O)Nc1nnc(C2CCCCC2)s1,"inconclusive: 15.1 µM [inhibitor, partial curve, poor fit]",
COc1ccc(-c2cc(C(=O)NCc3cccs3)no2)cc1,"inconclusive: 1.07 µM [inhibitor, partial curve, poor fit]",
COc1ccccc1C(=O)Nc1nnc(SCC(=O)NCC2CCCO2)s1 (stereo not drawn),active: 6.01 µM,
CN(CC(=O)Nc1c(Cl)cccc1Cl)C(=O)CNC(=O)c1ccc2ccccc2c1,"inconclusive: 26.9 µM [inhibitor, partial curve, poor fit]",
O=C(Nc1ccc2nccnc2c1)c1ccco1,"inconclusive: 26.9 µM [inhibitor, single point]",
CCc1cccc(C)c1NC(=O)CSc1nc(C)c(C)o1,,inactive: 0.857%
O=C(O)c1cccc(Cn2c(Cl)c(/C=N/NC(=O)c3ccccc3O)sc2=O)c1,active: 19 µM,
CCCC(=O)Nc1ccc2oc(-c3ccc(OC)c(Br)c3)nc2c1,"inconclusive: 2.69 µM [inhibitor, full curve]",
O=[N+]([O-])c1ccccc1OCc1nc(-c2cccs2)no1,active: 6.75 µM,
COc1ccc2c(c1)c(=O)c(S(=O)(=O)c1ccc(F)cc1)cn2Cc1ccccc1Cl,,inactive: 0.625%
Oc1ccc(Cl)cc1CNCc1ccc(Cl)cc1,"inconclusive: 37.9 µM [inhibitor, partial curve, poor fit]",
COc1cccc2c(C)cc3nnc(SCC(=O)Nc4ccc(C)cc4)n3c12,,inactive: -15.2%

Compound,Potency,"activity change, negative = inhibition"
O=C(c1ccc2c(c1)OCO2)c1cn(Cc2ccc(Cl)cc2)c2ccc(F)cc2c1=O,,inactive: -1.59%
COc1cccc(/C=N/Nc2nc(C)cc(=O)[nH]2)c1OC,"inconclusive: 16.9 µM [inhibitor, partial curve]",
COc1ccc(C(=O)/C=C/C(=O)N(CC(=O)NCCC(C)C)Cc2cccs2)c(O)c1,"inconclusive: 21.3 µM [inhibitor, single point]",
FC(F)(F)c1cccc(NC(=S)Nc2cccc(NC(=S)Nc3cccc(C(F)(F)F)c3)n2)c1,"inconclusive: 26.9 µM [inhibitor, partial curve, poor fit]",
COc1ccccc1NC(=O)Nc1nnc(C(C)c2ccccc2)s1 (stereo not drawn),,inactive: -16.3%
CCc1ccc(N2Cc3ccccc3C2)cc1,active: 6.01 µM,
CC(C)Oc1ccc(/C=N/NC(=O)c2ccc(N(Cc3ccccc3)S(C)(=O)=O)cc2)cc1,"inconclusive: 3.01 µM [inhibitor, partial curve, poor fit]",
COc1ccc(-c2nc(CCl)cs2)cc1,active: 9.53 µM,
COc1ccccc1CNC(=O)c1ccc2[nH]c(C)c(C)c2c1,"inconclusive: 21.3 µM [inhibitor, partial curve, poor fit]",
COc1ccc(NC(=O)c2nnn(Cc3nc(-c4cc(OC)c(OC)c(OC)c4)oc3C)c2C)cc1Cl,,inactive: -9.96%
COc1ccc(-c2cc(CCCC(=O)NCCc3ccc(OC)cc3OC)no2)cc1,"inconclusive: 10.7 µM [inhibitor, partial curve]",
COc1ccc(N(C)S(=O)(=O)c2cccc(C(=O)Nc3nnc(C4CC4)s3)c2)cc1,"inconclusive: 23.9 µM [inhibitor, partial curve]",
O=C(COC(=O)c1cccnc1Cl)c1ccc(F)cc1,active: 3.01 µM,
Cc1ccc2c(c1)nnn2C1CCN(S(=O)(=O)c2ccc(C(=O)N(C)C)cc2)CC1,,inactive: 2.18%
O=C(COC(=O)c1ccccc1OCc1ccc(F)cc1)NCC1CCCO1 (stereo not drawn),"inconclusive: 26.9 µM [inhibitor, single point]",
CSc1nc2ccc3nc(NC(=O)c4ccccc4)sc3c2s1,"inconclusive: 3.01 µM [inhibitor, full curve]",
CCn1nnnc1SCC(=O)Nc1nc(-c2cccs2)cs1,"inconclusive: 30.1 µM [inhibitor, partial curve, poor fit]",
CCOc1ccc(-c2nc(-c3cccnc3)no2)cc1OCC,"inconclusive: 37.9 µM [inhibitor, partial curve, poor fit]",
O=C(/C=C/c1ccccc1Cl)N1CCN(c2ncccn2)CC1,"inconclusive: 26.9 µM [inhibitor, partial curve, poor fit]",
CC(C)OC(=O)CC(=O)CSc1nc2c(cc1C#N)CCCCC2,active: 7.57 µM,
Cc1ccc(S(=O)(=O)N/N=C\c2ccc3c(c2)OCO3)c(C)c1,,inactive: -7.28%
O=C(CN(Cc1ccco1)C(=O)CNS(=O)(=O)c1ccccc1)NCc1ccc(F)cc1,,inactive: 6.05%
COc1ccc(C(=O)/C(=C/N(C)C)S(=O)(=O)c2ccccc2)cc1,"inconclusive: 23.9 µM [inhibitor, single point]",
Cc1ccc(C)c(-c2csc(NC(=O)C3=COCCO3)n2)c1,"inconclusive: 37.9 µM [inhibitor, single point]",
Clc1nssc1=Nc1ccccc1,active: 21.3 µM,

Compound,Potency,"activity change, negative = inhibition"
O=C(/C=C/c1cccs1)NC1CCCC1,"inconclusive: 37.9 µM [inhibitor, single point]",
COCCn1c(CNC(=O)c2cccc(C)c2)nc2cccnc21,,inactive: -0.276%
Cc1ccc2cc3cc(C(=O)N4CCCCCC4)oc3nc2c1,active: 2.69 µM,
C/C(=N\Nc1ccc(Cl)c(C(=O)O)c1)c1ccc(N2CCOCC2)cc1,active: 23.9 µM,
COc1cc(CNCCc2ccc(S(N)(=O)=O)cc2)ccc1OCC(=O)N1CCCCC1,,inactive: 1.8%
COc1cc(OC)cc(C(=O)Nc2cc3c(cc2N2CCOCC2)n(C)c(=O)n3C)c1,,inactive: 0.237%
COc1ccc(-n2nc3cc(C)c(NC(=O)c4ccc(-c5ccc(Br)cc5)o4)cc3n2)cc1,"inconclusive: 21.3 µM [inhibitor, partial curve]",
CCOC(=O)c1nnn(CC(=O)N2N=C(c3cccc4ccccc34)CC2c2ccccc2)c1C(=O)OCC (stereo not drawn),,inactive: 6.59%
Cc1cc(C)c(C(=O)N(CCN(C)C)CC2CCCN(Cc3ccccc3F)C2)o1 (stereo not drawn),,inactive: 4.81%
CN(C(=O)c1ccccc1C(=O)OCC(=O)c1ccc(Br)cc1)c1ccccc1,"inconclusive: 30.1 µM [inhibitor, single point]",
Cc1ccc(-c2nn(-c3ccc(F)cc3)cc2C(=O)NCC(c2cccs2)N2CCOCC2)cc1 (stereo not drawn),"inconclusive: 23.9 µM [inhibitor, partial curve, poor fit]",
C/C(=N\NC(=O)c1ccc(NS(=O)(=O)c2cccs2)cc1)c1ccc(Cl)cc1,"inconclusive: 33.8 µM [inhibitor, single point]",
CS(=O)(=O)C1=NN2C(=N)/C(=C\c3ccc(OC(=O)c4ccco4)cc3)C(=O)N=C2S1,"inconclusive: 33.8 µM [inhibitor, partial curve, poor fit]",
COc1ccc(N2C(=NC(=O)c3ccc(Br)cc3)SC3CS(=O)(=O)CC32)cc1 (stereo not drawn),,inactive: 3.27%
Cc1ccc(C(=O)c2cc3ccccc3o2)cc1[N+](=O)[O-],active: 7.57 µM,
CCN(CC)c1ccc(NC(=O)CN2CCN(c3ccccc3F)CC2)cc1,inactive,
COC(=O)CN1C(=O)C(C)(C)c2cc(S(=O)(=O)Nc3ccc(Br)cc3F)ccc21,"inconclusive: 15.1 µM [inhibitor, partial curve, poor fit]",
CSCCOC(=O)C1=C(C)Nc2ccc(C)cc2S1,"inconclusive: 23.9 µM [inhibitor, partial curve, poor fit]",
CCOc1cc(C(=O)OCC(=O)c2cc(C)n(CC3CCCO3)c2C)ccc1OCC(=O)N1CCOCC1 (stereo not drawn),"inconclusive: 37.9 µM [inhibitor, single point]",
O=C(CSc1nnc(NC(=O)c2ccco2)s1)Nc1ccc(F)cc1F,"inconclusive: 3.01 µM [inhibitor, full curve]",
O=[N+]([O-])c1ccc(NNC(=S)Nc2ccccc2)cc1,"inconclusive: 10.7 µM [inhibitor, partial curve, poor fit]",
CN(C)S(=O)(=O)c1ccc(NC(=O)c2ccc(Br)o2)cc1,"inconclusive: 21.3 µM [inhibitor, partial curve, poor fit]",
Cc1ccc(CCNC(=O)c2ccc3[nH]c(C)c(C)c3c2)cc1,"inconclusive: 19 µM [inhibitor, partial curve, poor fit]",
